{
  "source": "the supplement of paper PMC8728848",
  "binders": {"B1": {"name": "SLex-MBP-2 (Rattus norvegicus) (protein)", "chain": "MLLLPLLVLLCVVSVSSSGSQTCEETLKTCSVIACGRDGRDGPKGEKGEPGQGLRGLQGPPGKLGPPGSVGAPGSQGPKGQKGDRGDSRAIEVKLANMEAEINTLKSKLELTNKLHAFSMGKKSGKKFFVTNHERMPFSKVKALCSELRGTVAIPRNAEENKAIQEVAKTSAFLGITDEVTEGQFMYVTGGRLTYSNWKKDEPNDGGSGEDCYIKREKDNGLWNDISCQKKKTAVCEFPA"}},
  "experiment_in_all_cases": "glycan array binding signal (z-score within array); higher = stronger binding",
  "details_in_all_cases": "glycan notation: IUPAC condensed, linker removed",
  "key": {"[1]": {"molecular_target": "Fuc(a1-2)Gal(b1-3)GalNAc(b1-3)Gal", "procedure,_shortened": "(§1)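 Glycan array binding is given as a within-array Z-score, which can be read as non-binding when negative. The arrays, 3228 of them, came from the Consortium for Functional Glycomics database and were retained only where the protein sequence was available. Z-scores were averaged across arrays of the same protein sequence at different concentrations or buffers and across linkers.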"}, "[2]": {"molecular_target": "Fuc(a1-2)Gal(b1-3)GalNAc(b1-3)Gal(a1-4)Gal(b1-4)Glc", "procedure,_shortened": "as §1"}, "[3]": {"molecular_target": "Fuc(a1-2)Gal(b1-3)GalNAc(b1-3)Gal(b1-4)Glc", "procedure,_shortened": "as §1"}, "[4]": {"molecular_target": "Fuc(a1-2)Gal(b1-3)GalNAc(b1-4)[Neu5Ac(a2-3)]Gal(b1-4)Glc", "procedure,_shortened": "as §1"}, "[5]": {"molecular_target": "Fuc(a1-2)Gal6S(b1-4)GlcNAc", "procedure,_shortened": "as §1"}, "[6]": {"molecular_target": "Fuc(a1-2)[GalNAc(a1-3)]Gal(b1-4)GlcNAc", "procedure,_shortened": "as §1"}, "[7]": {"molecular_target": "Fuc(a1-2)[GalNAc(a1-4)]Gal(b1-4)GlcNAc", "procedure,_shortened": "as §1"}, "Fuc(a1-3)GlcNAc": {"molecular_target": "Fuc(a1-3)GlcNAc", "procedure,_shortened": "as §1"}, "Fuc(b1-3)GlcNAc": {"molecular_target": "Fuc(b1-3)GlcNAc", "procedure,_shortened": "as §1"}, "Gal(a1-6)Glc": {"molecular_target": "Gal(a1-6)Glc", "procedure,_shortened": "as §1"}, "[8]": {"molecular_target": "Gal(b1-3)[Fuc(a1-4)]GlcNAc(b1-3)Gal(b1-4)GlcNAc", "procedure,_shortened": "as §1"}, "[9]": {"molecular_target": "Gal(b1-3)[Fuc(a1-4)]GlcNAc(b1-3)Gal(b1-4)[Fuc(a1-3)]GlcNAc", "procedure,_shortened": "as §1"}, "[10]": {"molecular_target": "Gal(b1-3)[GlcNAc(b1-6)]GalNAc", "procedure,_shortened": "as §1"}, "Gal(b1-4)Glc6S": {"molecular_target": "Gal(b1-4)Glc6S", "procedure,_shortened": "as §1"}, "Gal6S(b1-4)Glc": {"molecular_target": "Gal6S(b1-4)Glc", "procedure,_shortened": "as §1"}, "[11]": {"molecular_target": "GlcNAc(b1-2)Gal(b1-3)GlcNAc", "procedure,_shortened": "as §1"}, "GlcNAc(b1-3)Gal": {"molecular_target": "GlcNAc(b1-3)Gal", "procedure,_shortened": "as §1"}, "[12]": {"molecular_target": "Man(a1-2)Man(a1-2)Man(a1-3)[Man(a1-2)Man(a1-3)[Man(a1-2)Man(a1-6)]Man(a1-6)]Man(b1-4)GlcNAc(b1-4)GlcNAc", "procedure,_shortened": "as §1"}, "Man(b1-4)GlcNAc": {"molecular_target": "Man(b1-4)GlcNAc", "procedure,_shortened": "as §1"}, "Neu5Ac(a2-3)Gal(b1-4)Glc": {"molecular_target": "Neu5Ac(a2-3)Gal(b1-4)Glc", "procedure,_shortened": "as §1"}, "[13]": {"molecular_target": "Neu5Ac(a2-3)Gal(b1-4)GlcNAc(b1-3)Gal(b1-4)GlcNAc", "procedure,_shortened": "as §1"}, "[14]": {"molecular_target": "Neu5Ac(a2-3)[GalNAc(b1-4)]Gal(b1-4)Glc", "procedure,_shortened": "as §1"}},
  "note": "This is one part of a sample in which the strongest signals are shown more often than they occur.",
  "data": [
    {"binder": "B1", "values": [
      {"measurement": "glycan array binding signal (z-score)", "setting": "[1]", "value": 0.35},
      {"measurement": "glycan array binding signal (z-score)", "setting": "[2]", "value": 0.001},
      {"measurement": "glycan array binding signal (z-score)", "setting": "[3]", "value": -0.354},
      {"measurement": "glycan array binding signal (z-score)", "setting": "[4]", "value": -0.209},
      {"measurement": "glycan array binding signal (z-score)", "setting": "[5]", "value": -0.191},
      {"measurement": "glycan array binding signal (z-score)", "setting": "[6]", "value": -0.131},
      {"measurement": "glycan array binding signal (z-score)", "setting": "[7]", "value": -0.176},
      {"measurement": "glycan array binding signal (z-score)", "setting": "Fuc(a1-3)GlcNAc", "value": -0.346},
      {"measurement": "glycan array binding signal (z-score)", "setting": "Fuc(b1-3)GlcNAc", "value": 0.063},
      {"measurement": "glycan array binding signal (z-score)", "setting": "Gal(a1-6)Glc", "value": 1.32},
      {"measurement": "glycan array binding signal (z-score)", "setting": "[8]", "value": -0.224},
      {"measurement": "glycan array binding signal (z-score)", "setting": "[9]", "value": -0.205},
      {"measurement": "glycan array binding signal (z-score)", "setting": "[10]", "value": -0.249},
      {"measurement": "glycan array binding signal (z-score)", "setting": "Gal(b1-4)Glc6S", "value": -0.097},
      {"measurement": "glycan array binding signal (z-score)", "setting": "Gal6S(b1-4)Glc", "value": 0.239},
      {"measurement": "glycan array binding signal (z-score)", "setting": "[11]", "value": 0.612},
      {"measurement": "glycan array binding signal (z-score)", "setting": "GlcNAc(b1-3)Gal", "value": -0.179},
      {"measurement": "glycan array binding signal (z-score)", "setting": "[12]", "value": 2.85},
      {"measurement": "glycan array binding signal (z-score)", "setting": "Man(b1-4)GlcNAc", "value": 1.26},
      {"measurement": "glycan array binding signal (z-score)", "setting": "Neu5Ac(a2-3)Gal(b1-4)Glc", "value": 3.29},
      {"measurement": "glycan array binding signal (z-score)", "setting": "[13]", "value": 0.183},
      {"measurement": "glycan array binding signal (z-score)", "setting": "[14]", "value": -0.271}
    ]}
  ]
}
